Assay results published in the supplement of paper PMC7266297.
Counter-ions that a name gives are not always drawn. This is one part of the list. Most values come without repeats; read them as rough.

Key:
[1] = tested on: KB-3-1; assay: growth inhibition relative to DMSO control (SRB); cervical cancer cells: KB-3-1 is the parent and KB-V1 overexpresses MDR1; SRB is the sulforhodamine B stain; higher = more growth inhibition; settings: 1 µM; 72 h
[2] = tested on: KB-V1; assay: as above; settings: 1 µM; 72 h
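Also: Read-out is SRB optical density at 490 nm, with the control being wells given 0.5% DMSO vehicle, and compound added one day after cells were plated.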

Row | Compound | growth inhibition [1] [%] | growth inhibition [2] [%]
1 | Oc1cc(O)c(Cl)cn1 [Gimeracil] | 21.6 | 21.6
2 | N#C/C(=C(/N)Sc1ccc(N)cc1)c1ccccc1C(F)(F)F | 23.3 | 26.2
3 | COCCc1ccc(OCC(O)CNC(C)C)cc1 (stereo not given) [Metoprolol Tartrate] | 52.2 | 19.6
4 | Fc1ccc([C@@H]2CCNC[C@H]2COc2ccc3c(c2)OCO3)cc1 [Paroxetine HCl] | 5.06 | 15.9
5 | CCCCNc1ccc(C(=O)OCCN(C)C)cc1 [Tetracaine HCl] | 24.2 | 2.13
